# Laboratory results published in the supplement of paper PMC3334620.
# The full ranking holds about 33,000 sequences; the median of “E-score (-0.5 to 0.5)” is about -0.013, and the highest 2% start at about 0.3. The list shows a part of the results.
# Target: T1, Msn1 (UniProt P22148)
# T1 sequence: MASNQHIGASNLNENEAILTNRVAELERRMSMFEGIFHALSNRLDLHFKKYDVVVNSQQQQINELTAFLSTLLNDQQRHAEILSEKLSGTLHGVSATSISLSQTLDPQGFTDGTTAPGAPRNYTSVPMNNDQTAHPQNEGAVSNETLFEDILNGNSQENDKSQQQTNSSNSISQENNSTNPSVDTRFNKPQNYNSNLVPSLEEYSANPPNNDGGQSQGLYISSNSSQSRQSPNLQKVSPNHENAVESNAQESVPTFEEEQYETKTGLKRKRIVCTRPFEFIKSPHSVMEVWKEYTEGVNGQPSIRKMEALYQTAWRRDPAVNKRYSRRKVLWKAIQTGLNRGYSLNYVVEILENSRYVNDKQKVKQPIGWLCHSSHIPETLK
# Test: PBM E-score (8-mer binding enrichment) (E-score (-0.5 to 0.5)); higher = stronger / more preferred TF binding; most listed sequences are background and not binding sites
# Details: protein concentration: 200 nM; construct: GST-full length
# Outline: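 Full-length yeast transcription factors or their DNA-binding domains, GST-tagged and expressed with PURExpress, were applied at about 100-200 nM to universal all-10-mer Agilent arrays. These arrays had been made double-stranded by primer extension on fresh or once-stripped slides. Detection used fluorescent anti-GST, normalisation used masliner, and E-scores for ungapped eight-base words pooled with reverse complements came from the Universal PBM Analysis Suite.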
row,Sequence,PBM E-score
1,CTAAGTCC,-0.0602
2,CTGAGTTC,0.0107
3,GGGGTGAC,-0.166
4,CTCACTCC,-0.069
5,TACCCAAA,0.196
6,CCGCAAAC,0.0701
7,ACTTGTAT,0.145
8,GGGCAACC,-0.125
9,ACACTATG,0.0864
10,AGCTCAAG,0.0255
11,CTTGAAAG,-0.0147
12,CTATAGGC,-0.144
13,GCGCGAGC,-0.251
14,CCACCGAG,-0.135
15,CCCCATAG,-0.15
16,GTGGACAC,0.356
17,CATATTTC,0.0185
18,CCGATTGC,0.104
19,CGTTCCCA,-0.158
20,CAACAATG,0.153
21,ATAGTCCA,0.13
22,AGCATCAG,-0.147

row,Sequence,PBM E-score
1,ATCAATCC,-0.0213
2,CCGTCGAA,0.0145
3,AAATATTA,0.198
4,ACGAGGTA,-0.0556
5,CTGCTTAC,-0.0712
6,ACAACAGC,0.231
7,AGCCCACG,-0.0627
8,AGTTCTGA,0.119
9,AGGTAATC,-0.139
10,ATTCCGGG,0.14
11,CGCGTATC,0.123
12,ATAAGACA,0.264
13,CAACTTCA,-0.0655
14,TGGGAACA,0.0591
15,AAAGGGCA,-0.0617
16,GTCCTATA,0.303
17,CATGAAGA,-0.0152
18,AAGGGAGT,-0.192
19,CGACGATA,0.0245
20,AAATGCAA,0.00682
21,AACGTGGA,-0.00782
22,AGACGAAG,-0.0272

row,Sequence,PBM E-score
1,AAAGTCCT,0.427
2,ACGCAAAG,-0.0925
3,GTGTCTAA,0.192
4,ACGACTTG,0.0425
5,CAAATCTA,0.219
6,CCCTCGGC,-0.0865
7,GAGTCTCC,-0.0706
8,GCAAACAC,-0.135
9,CTGTTCTC,-0.0397
10,AAGTTTTC,0.0629
11,CGACAAAG,0.294
12,ATTCCTGC,0.0301
13,CGCGAACC,0.119
14,GCACTACC,-0.127
15,AAAAGAAA,0.171
16,GCAATCCC,-0.162
17,AGGTAACA,0.113
18,GAATGAAC,-0.0115
19,ACAGTCGA,-0.0747
20,AAGCAGCG,-0.07
21,CAGAACGC,-0.144
22,GAACCCGA,-0.0647

row,Sequence,PBM E-score
1,ACCTCACA,-0.124
2,CACCGCGG,0.0101
3,ACCTCGAG,-0.0305
4,CATTATTA,0.111
5,CGGACCGA,0.165
6,CCTTAAAC,-0.114
7,GAGTCTCA,0.00041
8,AGACATTA,0.429
9,TGGGGACA,0.433
10,CAAAGGCG,-0.0257
11,ATTGTGAA,0.0287
12,GCAAGGTA,-0.0942
13,GGATACAA,0.155
14,CCTATGAA,-0.00165
15,CAGCCCCA,-0.196
16,AAATCCCT,-0.141
17,CAAGATCA,-0.135
18,ACCCCACC,-0.111
19,AGGATCAA,0.104
20,ATAATCTG,-0.129
